The campaign covered roughly 270,000 compounds. About 620 (0.23%) were called active. The inconclusive results got no clear call from the source; some entries with a clear call stand among them for comparison. Calls come from the whole dose curve; as a rule, active = well fitted inhibition curve with a large enough effect in the polarisation, with a control signal flat (not every such curve was filed as active); inconclusive = small, poorly fitted or top-dose-only effect, or effect the other way, or a change in a side signal; inactive = no such curve, though single readings can be large or run the other way; the % refers to the polarisation. Potencies beside an inconclusive call are fits to weak or partial responses and may not hold up. A note “side channel” means that the fit belongs to a control or component signal, not to the main read-out.
Target: Menin (Homo sapiens) (UniProt O00255)
Assay: qHTS Assay for Inhibitors Targeting the Menin-MLL Interaction in MLL Related Leukemias: Competition With Texas Red Labeled MLL-derived Mutant Peptide
Conditions: fluorescence polarization; series mostly up to 61.6 µM
Potency is the fitted concentration of half-maximal effect; tags give direction and shape of the fitted curve or compound fluorescence and quenching.

Sequence of UniProt O00255 (O00255 whole entry, looked up): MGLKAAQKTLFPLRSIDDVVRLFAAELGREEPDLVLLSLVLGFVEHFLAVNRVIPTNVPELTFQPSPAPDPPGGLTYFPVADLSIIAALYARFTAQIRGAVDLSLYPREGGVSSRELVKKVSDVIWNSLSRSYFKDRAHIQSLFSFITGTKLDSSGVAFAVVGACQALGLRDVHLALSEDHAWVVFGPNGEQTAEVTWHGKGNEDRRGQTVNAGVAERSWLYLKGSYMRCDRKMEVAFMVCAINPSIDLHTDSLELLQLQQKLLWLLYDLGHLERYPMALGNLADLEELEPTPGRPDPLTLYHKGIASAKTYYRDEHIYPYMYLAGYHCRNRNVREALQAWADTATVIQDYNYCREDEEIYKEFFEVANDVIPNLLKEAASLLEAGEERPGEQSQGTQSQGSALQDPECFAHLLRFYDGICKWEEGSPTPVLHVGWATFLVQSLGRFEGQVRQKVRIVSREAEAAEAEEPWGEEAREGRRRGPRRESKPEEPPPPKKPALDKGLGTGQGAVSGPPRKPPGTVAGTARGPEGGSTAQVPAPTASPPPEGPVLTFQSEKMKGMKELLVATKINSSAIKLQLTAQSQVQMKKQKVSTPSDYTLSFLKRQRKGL

SMILES | Potency
COc1ccc(OC)c2sc(NC(=O)c3ccc(S(=O)(=O)N4CCOCC4)cc3)nc12 | active: 17.8 µM
CCOc1ccc(C(=O)N/N=C/c2cc(Cl)ccc2[N+](=O)[O-])cc1 | inconclusive: 1.78 µM [inhibitor, partial curve]
CCOC(=O)c1ccc(N/C=C/C(=O)c2ccccc2)cc1 | inconclusive: 22.4 µM [quencher, side channel, single point]
COc1ccccc1-c1cnn2c(NCc3ccccc3)cc(C)nc12 | inconclusive: 11.2 µM [quencher, side channel, partial curve]
Cc1ccc(S(=O)(=O)N2CCC(Oc3cccc(C(F)(F)F)c3)CC2)cc1 | inconclusive: 12.6 µM [fluorescent, side channel, partial curve]
Cc1cc2oc(=O)cc(CN3CCOCC3)c2c(C)c1Cl | inconclusive: 39.8 µM [inhibitor, single point]
Cc1ccc(-c2csc(NC(=O)Cc3ccc(F)cc3)n2)o1 | inconclusive: 22.4 µM [quencher, side channel, partial curve]
COc1ccc(NS(=O)(=O)c2cc(N/C(=N\S(=O)(=O)c3ccccc3)c3ccc(F)cc3)ccc2Cl)cc1 | inconclusive: 20 µM [inhibitor, single point]
O=[N+]([O-])c1ccc(COc2cccc3cccnc23)cc1 | inconclusive: 25.1 µM [inhibitor, single point]
CCOC(=O)c1c(C2CC2)csc1NC(=O)CSCc1c(C)noc1C | inconclusive: 1.78 µM [fluorescent, side channel, full curve, poor fit]
COc1ccc(C(=O)OCC(=O)Nc2cccc(C(C)=O)c2)cc1OC | inconclusive: 1.26 µM [quencher, side channel, full curve, poor fit]
CC1=NN(c2ccc(C)c(C)c2)C(=O)/C1=C\C=C\c1ccc([N+](=O)[O-])o1 | inconclusive: 10 µM [quencher, side channel, partial curve]
O=C(Cc1ccc(S(=O)(=O)N2CCOCC2)s1)NCCC(c1ccccc1)c1ccccc1 | inconclusive: 12.6 µM [quencher, side channel, partial curve]
COc1ccc2c(=O)c(C)c(-c3ccccc3)oc2c1CN(C)C | inactive
CCN(CC)S(=O)(=O)c1ccc(C(=O)NCc2ccc3c(c2)cc(C)n3C)cc1 | inconclusive: 35.5 µM [fluorescent, side channel, single point]
CCc1ccccc1NC(=O)C1=CC(c2cccs2)=NS(=O)(=O)N1C | inconclusive: 11.2 µM [quencher, side channel, partial curve]
NS(=O)(=O)c1ccc(CNC(=S)Nc2ccc(F)c(Cl)c2)cc1 | inconclusive: 35.5 µM [quencher, side channel, single point]
O=C(CCc1ccccc1)NNC(=O)COc1ccc(Br)cc1 | inconclusive: 39.8 µM [fluorescent, single point]
CCc1nnc(NS(=O)(=O)c2ccc(NC(=O)c3cccc([N+](=O)[O-])c3)cc2)s1 | inconclusive: 25.1 µM [quencher, side channel, partial curve]
O=S(=O)(c1ccc(NC(=S)NN=C(Cc2ccccc2)Cc2ccccc2)cc1)N1CCOCC1 | inconclusive: 28.2 µM [quencher, single point]
CCC(C)/C=C/C1=CC2=C(Cl)C(=O)C3(C)OC(=O)C(C(=O)C(C)C(C)O)C3C2=CO1 (stereo not given) | inactive
CCCc1cc(=O)oc2cc(OC(C)C(=O)NCC3CCC(C(=O)O)CC3)c(Cl)cc12 (stereo not given) | inactive
Cc1cn2c(N)c(C=C3C=C(Cl)C(=O)C(Cl)=C3)c(=O)nc2s1 | inconclusive: 10 µM [quencher, side channel, partial curve]
CCCCCCN(C(=O)CCCCCN1C(=O)NC(c2ccc(C(F)(F)F)cc2)C(C(=O)OCc2ccccc2)=C1C)C(C(=O)NCCCC)c1ccc(OCC(=O)OC)c(C(=O)OC)c1 (stereo not given) | inconclusive: 1.12 µM [inhibitor, full curve, poor fit]
COC(=O)C1CC23C=CCN4CCC5(c6ccccc6NC15C2C)C43 (stereo not given) | inconclusive: 35.5 µM [inhibitor, single point]
CCOc1ccc(-n2nc3c(SCCN4CCCC4)nnc(C)c3c2C)cc1 | inconclusive: 39.8 µM [fluorescent, side channel, single point]
COc1cc(OC)c2c(-c3cccc(-c4cccc(C)c4)c3)cc(=O)oc2c1 | inactive
Cc1cc([N+](=O)[O-])ccc1N1C(=O)c2ccc(C(=O)Nc3ccccc3C(=O)O)cc2C1=O | inconclusive: 39.8 µM [quencher, single point]

SMILES | Potency
Cc1ccc(N/N=C(\C#N)C(N)=S)c(C)c1 | inconclusive: 39.8 µM [quencher, side channel, single point]
Cc1[nH]n(-c2ccccc2)c(=O)c1/C=N/NC(=O)c1ccc(O)cc1O | inconclusive: 17.8 µM [quencher, side channel, partial curve]
CCN1C(=NCCN2CCOCC2)N[C@@H](CCc2ccccc2)C(C(=O)OC)=C1C | inconclusive: 11.2 µM [fluorescent, side channel, partial curve]
CCOc1ccc(CNC(c2ccccc2)c2ccccc2)cc1 | inconclusive: 25.1 µM [fluorescent, side channel, single point]
CSc1ccc(/C=N\Nc2nncn2N)cc1 | inconclusive: 3.55 µM [inhibitor, partial curve]
Nc1c(C(=O)Nc2ccccc2Cl)nnn1-c1ccc2c(c1)OCCO2 | inconclusive: 39.8 µM [fluorescent, side channel, single point]
Cc1ccccc1CN1C(=O)c2ccccc2Sc2ccc(C(=O)O)cc21 | inconclusive: 25.1 µM [quencher, side channel, single point]
C/C=C/Cn1c(SCc2ccc(Cl)cc2)nc2c1c(=O)[nH]c(=O)n2C | inconclusive: 7.94 µM [fluorescent, side channel, full curve]
CCOc1ccc(-n2ccc(=O)c(C(=O)Nc3ccc(S(=O)(=O)Nc4nccs4)cc3)n2)cc1 | inconclusive: 25.1 µM [quencher, side channel, partial curve]
COc1cc(-c2cc(=O)c3c(O)c(OC)c(OC)c(O)c3o2)ccc1O | inconclusive: 20 µM [quencher, side channel, partial curve]
CNC(=O)COC(=O)/C=C/c1cn(-c2ccccc2)nc1-c1ccc2c(c1)OCCO2 | inconclusive: 3.55 µM [quencher, side channel, full curve]
COC(=O)c1c(C)[nH]c(C)c1-c1ccc([N+](=O)[O-])cc1 | inconclusive: 22.4 µM [quencher, side channel, single point]
O=C(O)C1Sc2[nH]c(=O)sc2C2c3ccc(O)cc3OC(=O)C12 (stereo not given) | inactive
CCSc1nc(N)c(C#N)c(-c2ccco2)c1C#N | inconclusive: 31.6 µM [quencher, side channel, partial curve]
O=C(C/C=N/OCc1ccc(Cl)cc1)c1cnc(-c2ccccc2)s1 | inconclusive: 14.1 µM [quencher, side channel, partial curve]
O=C(Nc1cccc2ccccc12)N1CCOCC1 | inactive
Cc1cc2cc(CNC(=O)c3ccc(C)c([N+](=O)[O-])c3)ccc2[nH]1 | inconclusive: 35.5 µM [quencher, side channel, single point]
CC(C)=NNc1nc2c(c(=O)[nH]c(=O)n2C)n1CCCc1ccccc1 | inconclusive: 2.24 µM [inhibitor, full curve]
CCc1ccc(NC(=O)CC2C(=O)NCCN2C(=O)c2ccccc2OC)cc1 (stereo not given) | inactive
CCC1(CC)NC(=O)N(CC(=O)Nc2sc3c(c2C(N)=O)CCC3)C1=O | inconclusive: 31.6 µM [quencher, side channel, single point]
CC(C)C[C@@H](CC(=O)N[C@@H](CCC(=O)O)CC(=O)O)NC(=O)[C@@H]1CNCC[C@H]1NC(=O)C[C@H](CCCN)NC(=O)C[C@H](Cc1c[nH]c2ccccc12)NC(=O)[C@@H]1CCCC[C@H]1N | inactive
COc1cccc(CNC(=O)CCn2ccc3cc(S(=O)(=O)N4CCC(C)CC4)ccc32)c1 | inconclusive: 3.55 µM [quencher, side channel, full curve, poor fit]
COc1ccc(NC(=O)C2CCCN(S(=O)(=O)c3cnc[nH]3)C2)cc1 (stereo not given) | inconclusive: 11.2 µM [inhibitor, partial curve]
CC(C)C(=O)N(c1cc2sc(=O)oc2c2ccccc12)S(=O)(=O)c1cccs1 | inconclusive: 31.6 µM [quencher, side channel, partial curve]
CCC(=O)c1cc2c(cc1NC(=O)c1cccs1)OCCO2 | inconclusive: 39.8 µM [quencher, side channel, single point]
COc1cc([N+](=O)[O-])cc(/C=N/NC(=O)c2ccc(NC(=O)c3ccc(C)cc3)cc2)c1O | inconclusive: 3.55 µM [quencher, side channel, full curve]
OCCN1CCN(CC(O)COc2ccc(C34CC5CC(CC(C5)C3)C4)cc2)CC1 (stereo not given) | inconclusive: 22.4 µM [fluorescent, side channel, partial curve]

Reference: PubChem BioAssay AID1768 (National Center for Advancing Translational Sciences (NCATS), 2009)
